Measured values as given in patent publication US20250268979A1, “COMBINATION OF MACROCYCLIC CFTR MODULATORS WITH CFTR CORRECTORS AND / OR CFTR POTENTIATORS” (Idorsia Pharmaceuticals Ltd, priority 2022, published 2025).

Columns and labels:
F508del-CFTR [1] = target: T1, F508del-CFTR (Homo sapiens, UniProt P13569, DEL508-508); assay: cell-based; settings: for Emax: U2OS
[2] = target: T2, human F508del-CFTR chloride channel (Homo sapiens, UniProt P13569, DEL508-508); assay type: cell-based; set-up: host or cells: U2OS
Procedure: Final DMSO concentration in the assay is 0.34%. […] The next day, the cell plates are incubated for 2 h at RT in the dark. […] Measured values are expressed as fold-change versus the baseline value (absence of CFTR correctors=vehicle treatment).
(type-I corrector+type-III corrector). […] Error bars represent the standard error of the mean.
Error bars represent the standard error of the mean.

[3] = target: T2, human F508del-CFTR chloride channel; assay: Combination efficacy experiment: restauration of F508del-CFTR function in recombinant U2OS cell line (YFP quenching assay)
F508del-CFTR [4] = target: T1, F508del-CFTR

Compound: COc1noc(CCNC(=O)[C@@H]2CC(=O)N(C)[C@@H](CC(C)C)C(=O)N(C)[C@H](CC(F)(F)F)C(=O)N[C@H](Cc3ccccc3)COc3ccc4ncc(F)cc4c3C(=O)N2)n1 [Example 3, (3S,7S,10R,13R)-13-benzyl-20-fluoro-7-isobutyl-N-(2-(3-methoxy-1,2,4-oxadiazol-5-yl)ethyl)-6,9-dimethyl-1,5,8,11-tetraoxo-10-(2,2,2-trifluoroethyl)-1,2,3,4,5,6,7,8,9,10,11,12,13,14-tetradecahydro-[1]oxa[4,7,10,14]tetraazacycloheptadecino[16,17-f]quinoline-3-carboxamide]
EC50 (F508del-CFTR [1]): 146 nM
Emax (F508del-CFTR [1]): 460%
F508del-CFTR cell surface expression (FIG. 6) ([2]; 200 nM added to basal 2 uM elexacaftor or 5 uM PTI-801, 16 h): enhances F508del-CFTR surface expression on top of these basal treatments
F508del-CFTR cell surface expression (FIG. 1) ([2]; 200 nM added to basal 2 uM tezacaftor, 0.2 uM galicaftor, 5 uM Corrector 4a, 2 uM elexacaftor or [2 uM tezacaftor+2 uM elexacaftor], 16 h): enhances F508del-CFTR surface expression on top of all basal treatments
F508del-CFTR function, YFP quenching (FIG. 4) ([3]; 400 nM added to basal Corrector 4a (5 uM) and/or navocaftor (50 nM)): enhances F508del-CFTR function on top of all basal treatments
F508del-CFTR function, YFP quenching (FIG. 5) ([3]; 400 nM added to basal elexacaftor (2 uM) and/or ivacaftor (2 nM)): enhances F508del-CFTR function on top of all basal treatments
F508del-CFTR function, YFP quenching (FIG. 2) ([3]; 400 nM added to basal galicaftor (1 uM) and/or navocaftor (50 nM)): enhances F508del-CFTR function on top of all basal treatments
F508del-CFTR function, YFP quenching (FIG. 3) ([3]; 400 nM added to basal tezacaftor (2 uM) and/or ivacaftor (2 nM)): enhances F508del-CFTR function on top of all basal treatments

Compound: COc1cc(CCNC(=O)[C@@H]2CC(=O)N(C)[C@@H](CC(C)C)C(=O)N(C)[C@H](CC(F)F)C(=O)N[C@H](Cc3ccccc3)COc3ccc4cnc(C)cc4c3C(=O)N2)on1 [Example 26, (3S,7S,10R,13R)-13-benzyl-10-(2,2-difluoroethyl)-7-isobutyl-N-(2-(3-methoxyisoxazol-5-yl)ethyl)-6,9,20-trimethyl-1,5,8,11-tetraoxo-1,2,3,4,5,6,7,8,9,10,11,12,13,14-tetradecahydro-[1]oxa[4,7,10,14]tetraazacycloheptadecino[16,17-f]isoquinoline-3-carboxamide]
EC50 (F508del-CFTR [1]): 275 nM
Emax (F508del-CFTR [1]): 459%

Compound: COc1noc(CCNC(=O)[C@@H]2CC(=O)N(C)[C@@H](CC(C)C)C(=O)N(C)[C@H](CC(F)F)C(=O)N[C@H](Cc3ccccc3)COc3ccc4ncc(F)cc4c3C(=O)N2)n1 [Example 30, (3S,7S,10R,13R)-13-benzyl-10-(2,2-difluoroethyl)-20-fluoro-7-isobutyl-N-(2-(3-methoxy-1,2,4-oxadiazol-5-yl)ethyl)-6,9-dimethyl-1,5,8,11-tetraoxo-1,2,3,4,5,6,7,8,9,10,11,12,13,14-tetradecahydro-[1]oxa[4,7,10,14]tetraazacycloheptadecino[16,17-f]quinoline-3-carboxamide]
EC50 (F508del-CFTR [1]): 273 nM
Emax (F508del-CFTR [1]): 452%

Compound: Cc1nn(C)cc1S(=O)(=O)NC(=O)c1ccc(-n2ccc(OCC(C)(C)C(F)(F)F)n2)nc1N1C[C@@H](C)CC1(C)C [elexacaftor, N-(1,3-dimethyl-1H-pyrazole-4-sulfonyl)-6-[3-(3,3,3-trifluoro-2,2-dimethylpropoxy)-1H-pyrazol-1-yl]-2-[(4S)-2,2,4-trimethylpyrrolidin-1-yl]pyridine-3-carboxamide]
F508del-CFTR cell surface expression (FIG. 6), type-III corrector added to type-III corrector ([2]; 2 uM elexacaftor added to 5 uM PTI-801): does not lead to additive effects

Compound: (3S,7S,10R,13R)-13-benzyl-20-fluoro-7-isobutyl-N-(2-(3-methoxyisoxazol-5-yl)ethyl)-6,9,10-trimethyl-1,5,8,11-tetraoxo-1,2,3,4,5,6,7,8,9,10,11,12,13,14-tetradecahydro-[1]oxa[4,7,10,14]tetraazacycloheptadecino[16,17-f]quinoline-3-carboxamide [Example 10]
EC50 (F508del-CFTR [4]; U2OS cells, 16 h compound incubation, geomean values): 156 nM
Emax (F508del-CFTR [4]; in relation to Emax of lumacaftor = 100%, arithmetic mean values): 337%

Next, values leading:

EC50 (F508del-CFTR [1]): 263 nM
Emax (F508del-CFTR [1]): 490%
Compound: COc1noc(CCNC(=O)[C@@H]2CC(=O)N(C)[C@@H](CC(C)C)C(=O)N(C)[C@H](CC(F)(F)F)C(=O)N[C@H](Cc3ccccc3)COc3ccc4cnc(C)cc4c3C(=O)N2)n1 [Example 1, (3S,7S,10R,13R)-13-benzyl-7-isobutyl-N-(2-(3-methoxy-1,2,4-oxadiazol-5-yl)ethyl)-6,9,20-trimethyl-1,5,8,11-tetraoxo-10-(2,2,2-trifluoroethyl)-1,2,3,4,5,6,7,8,9,10,11,12,13,14-tetradecahydro-[1]oxa[4,7,10,14]tetraazacycloheptadecino[16,17-f]isoquinoline-3-carboxamide]

EC50 (F508del-CFTR [1]): 67 nM
Emax (F508del-CFTR [1]): 431%
Compound: COc1noc(CCNC(=O)[C@@H]2CC(=O)N(C)[C@@H](CC(C)C)C(=O)N(C)[C@H](CC(F)F)C(=O)N[C@H](Cc3ccccc3)COc3ccc4ncc(F)cc4c3C(=O)N2)c1F [Example 38, (3S,7S,10R,13R)-13-benzyl-10-(2,2-difluoroethyl)-20-fluoro-N-(2-(4-fluoro-3-methoxyisoxazol-5-yl)ethyl)-7-isobutyl-6,9-dimethyl-1,5,8,11-tetraoxo-1,2,3,4,5,6,7,8,9,10,11,12,13,14-tetradecahydro-[1]oxa[4,7,10,14]tetraazacycloheptadecino[16,17-f]quinoline-3-carboxamide]

EC50 (F508del-CFTR [1]): 601 nM
Emax (F508del-CFTR [1]): 482%
Compound: COc1cc(CCNC(=O)[C@@H]2CC(=O)N(C)[C@@H](CC(C)C)C(=O)N(C)[C@H](CC(F)(F)F)C(=O)N[C@H](Cc3ccccc3)COc3ccc4nc(C)oc4c3C(=O)N2)on1 [Example 42, (8R,11R,14S,18S)-8-benzyl-14-isobutyl-N-(2-(3-methoxyisoxazol-5-yl)ethyl)-2,12,15-trimethyl-10,13,16,20-tetraoxo-11-(2,2,2-trifluoroethyl)-7,8,9,10,11,12,13,14,15,16,17,18,19,20-tetradecahydrooxazolo[4′,5′:5,6]benzo[1,2-p][1]oxa[4,7,10,14]tetraazacycloheptadecine-18-carboxamide]

Read-outs that look alike come from different tables or passages of the source. One block for each compound: values may come before it.
